About 60 (0.1%) of roughly 46,000 compounds were called active. About 3% were inconclusive and are not listed. Calls follow the shape of the dose curve; as a rule, active = well fitted inhibition curve with a large enough effect; inconclusive = small, poorly fitted or top-dose-only effect; inactive = no such curve, though single readings can be large or run the other way. This is one part of the list.
Assay: Primary qHTS assay for Inhibitors of ovarian cancer metastasis using an organotypic tumor microenvironment (TME) model. Also: nearly all actives have a fitted effect of over 65% in size.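 As to activity change, negative = inhibition: plate controls were DMSO wells for no effect and tomatine positive control wells for full effect.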
Settings: SKOV3ip1-GFP adhesion/invasion on 3D omental model, fluorescence; series mostly up to 45.8 µM; activity change, negative = inhibition: at the top concentration
In short: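 Primary human omental fibroblast/mesothelial 3D culture pre-formed 48 h. SKOV3ip1-GFP cells added with compounds (0.36-46 umol/L), incubated 2 h RT/16 h 37 C, fixed; GFP cells quantified at 488/509 nm.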

outcome, inactive:
Cc1ccc(-n2ccn(CC(=O)c3ccc(F)cc3)c(=O)c2=O)cc1C
Cc1ccc2c(CC(=O)Nc3c(C(=O)c4ccc(F)cc4)oc4ccccc34)coc2c1C
CCn1cc(C(=O)NCc2ccc(Cl)cc2)c(=O)c2cc(S(=O)(=O)N3CCc4ccccc4C3)ccc21
CCOC(=O)c1ccc(N2C(=O)c3[nH]nc(-c4ccccc4)c3C2c2ccc(C(C)C)cc2)cc1 (stereo not given)
COc1ccc(C)cc1NC1(c2ccccc2)C(=O)c2ccccc2C1=O
O=c1c(-c2cc(-c3ccccc3)nc3c2COc2ccc(Cl)cc2-3)coc2ccccc12
CCCn1c(=O)c2sccc2n2c(CCCC(=O)N3CCN(c4ccc(OC)cc4)CC3)nnc12
CCOCCCNC(=O)CN1C(=O)COc2ccc(S(=O)(=O)N3CCOCC3)cc21
O=C(Nc1ccc(F)cc1F)c1ccc(-n2cnc3cccnc32)cc1
O=C(CSc1ccc2nc(-c3ccccc3)cn2n1)Nc1ccccc1
CCOc1ccc(/C=C(\C#N)C(=O)Nc2sc3c(c2C(=O)OC)CCC3)cc1OC
CCCOc1ccc(CNC(=O)CCCN2C(=O)CSc3c2c(C)nn3-c2ccccc2)cc1
CCOC(=O)c1sc(NC(=O)c2nc3nc(C)cc(C(F)F)n3n2)c(C(=O)OC(C)C)c1C
Cc1ccc(-c2nc(CCNC(=O)C(=O)Nc3ccc(C)c(Cl)c3)cs2)cc1
Cc1cccc(CSc2ncc(Cl)c(C(=O)Nc3nnc(C)s3)n2)c1
CC1=C(C(=O)Nc2ccccc2C)C(c2sccc2C)n2ncnc2N1 (stereo not given)
CCOc1ccc(-c2cc(NC(=O)Nc3ccccc3Cl)c(C(=O)OC)s2)cc1
Cc1ccc(/C=C/c2onc(C)c2S(=O)(=O)N2CCC(C(=O)Nc3cccc(C#N)c3)CC2)cc1
CCOC(=O)COc1ccc(CC)cc1C(=O)c1ccn2nc(-c3ccc(C)cc3)cc2n1
CCc1ccccc1NC(=O)c1nc2nc(C)cc(C(F)F)n2n1
COc1cccc(CN2C(=O)c3ccccc3C2C(=O)NCCc2ccccc2)c1 (stereo not given)
CCCS(=O)(=O)c1c(S(=O)(=O)CCC)c2cc(C(C)(C)C)ccn2c1C(=O)c1ccc(C)cc1
O=C(NCc1ccc(Cl)cc1)C1CCN(C(=O)c2cnn(-c3ccccc3)c2-n2cccc2)CC1

Activity change, negative = inhibition, inactive:
CC(=O)N1CCCc2cc(S(=O)(=O)Nc3ccc(OC(F)(F)F)cc3)ccc21 -0.459%
Cc1ccc(C)c(S(=O)(=O)c2cn(Cc3ccccc3)c3cc(N4CCCC4)c(F)cc3c2=O)c1 2.15%
CCOc1ccc(NC(=O)Cn2c(=O)n(CC(=O)NCCc3ccccc3)c(=O)c3sccc32)cc1 -21.7%
CC(C)c1ccc(NC(=O)C(Cc2ccccc2)n2cccc2)cc1 (stereo not given) -7.52%
CC(=O)Nc1nonc1-c1nnc(SCC(=O)Nc2c(C)cccc2C)n1-c1ccccc1 22.7%
COc1ccc2c(CNCCc3ccco3)c(C(=O)O)n(Cc3ccc(F)cc3)c2c1 15%
COc1cccc(NC(=O)c2oc3ccccc3c2NC(=O)c2ccc(OC(C)C)cc2)c1 -14.2%
Cc1ccc(-n2[nH]c(C)c(N=Nc3cccc(-c4cccc(C(=O)O)c4)c3O)c2=O)cc1C -7.52%
CN(C)c1ccc(NC(=O)CC(NCc2cccnc2)C(=O)O)cc1 (stereo not given) -10.6%
Cc1ccccc1NC(=O)c1sc2nc3n(c(=O)c2c1C)N=C(c1ccccc1)CS3 -9.31%
COc1ccc2nc(N3CCN(C(=O)CS(=O)(=O)c4ccc(C)cc4)CC3)sc2c1 -0.57%
COc1ccc(OC)c(N(C)S(=O)(=O)c2ccc3c(c2)NC(=O)CC(=O)N3)c1 2.2%
Cc1ccc(-c2cnc(C3CC3)o2)cc1S(=O)(=O)Nc1ccc(F)cc1Cl -4.46%
COc1cccc(CNc2sc3c(c2C(=O)Nc2ccc(OC)cc2OC)CCC3)c1 3.19%
Cc1ccc(NC(=O)CCCn2c(=O)c3cccn3c3cccnc32)c(C)c1 0.733%
COc1ccc(-n2ccn3c(CC(C)(C)CC(=O)O)nnc3c2=O)cc1 -18.2%
Cc1cccc(N2CCN(c3ccc4cc(S(=O)(=O)N5CCC(C)CC5)ccc4n3)CC2C)c1 (stereo not given) -0.471%
CC(=O)c1ccc(NC(=O)CSc2nccn2C2CCCC2)cc1 -5.88%
CC(C)CNC(=O)C(=O)Nc1c2c(nn1-c1ccc(Cl)cc1)CSC2 -26.7%
O=C(O)C(=O)Nc1cccc(C2=NN=N[N]2)c1 -6.27%
Cc1nn(-c2cccc(Cl)c2)c2nc(-c3cccnc3)cc(C(F)(F)F)c12 4.34%
CC1CCN(S(=O)(=O)c2ccc3nc(Nc4cccc(F)c4)ccc3c2)CC1 -20.9%
C[C@@H]1C(=O)O[C@H]2CC34[C@H]5C[C@@H](C(C)(C)C)C36[C@H](OC(=O)[C@@H]6O)O[C@@]4(C(=O)O5)[C@]21O (stereo not given in full) 8.26%
CC(C)CC(=O)Nc1cccc(-c2cn3cccnc3n2)c1 -2.9%
COc1ccc(CNC(=O)c2cc3cccc4c3n2CC(C)S4)cc1 (stereo not given) 11.1%
CCOc1ccc(NC(=O)CSc2nc3ccccc3nc2N2CCOCC2)cc1 -20.6%
O=c1c(N2CCN(c3ccc(F)cc3)CC2)csc2ccc(F)cc12 1.35%
COc1ccc(S(=O)(=O)NC(C)(C)CO)cc1-c1nnc2c3ccccc3c(C)nn12 -1.94%
COc1ccc(-c2cc(C(F)(F)F)nc(SCCC(=O)Nc3ccc(F)cc3F)n2)cc1 11%
CC(=O)c1ccc(NC(=O)CSc2nnc3c(n2)[nH]c2ccccc23)cc1 3.55%
CCOC(=O)c1ccc(N2C(=O)c3n[nH]c(-c4cccs4)c3C2c2cccc(O)c2)cc1 (stereo not given) 12.9%
Clc1ccc(-c2nc3ncccn3c2Nc2ccc3c(c2)OCCO3)cc1 0.79%
O=C(CCC1N=C2c3ccccc3N=C(SCc3ccc(F)cc3)N2C1=O)N1CCN(c2ccccc2)CC1 (stereo not given) 6.52%
N#Cc1c(-n2ncnc2-c2ccccc2Cl)sc2c1CCCCC2 2.95%
COc1ccc(N(C)C(=O)c2oc(=O)c3ccccc3c2-c2ccc(C)cc2)c(OC)c1 -4.95%
CC1=C(C(=O)Nc2cccc(F)c2)C2(CCCCC2)OC1=O 1.63%
Cc1cccc(Nc2cc(C)nc3nc(-c4ccccc4)nn23)c1 -3.28%
CCOC(=O)C1CCN(C(c2ccc(C)cc2)c2sc3nc(-c4ccco4)nn3c2O)CC1 (stereo not given) 0.323%
CC(C)c1ccc(CNC(=O)c2ccc(N3CCCC3)c(NC(=O)NCc3ccc(F)cc3)c2)cc1 1.3%
COC(=O)c1c(SCC(=O)Nc2ccccc2C(F)(F)F)[nH]c2ccc(Cl)cc2c1=O 4.92%
Cc1ccc(CNC(=O)CCc2c(C)c3cc4c(C)coc4cc3oc2=O)cc1 -7.5%
COc1ccccc1C(=O)Nc1ccccc1C(=O)OCc1cc(=O)n2ccsc2n1 -1.74%
N#Cc1cccc(NC(=O)C2CCN(S(=O)(=O)c3ccc4c(c3)CCCN4C(=O)C3CCC3)CC2)c1 2.46%
CCCN(CCC)C(=O)Cn1c(SCc2cccc(F)c2)nc2cccnc21 -1.29%
CCOc1ccccc1NC(=O)CSc1nc2cc(OC)c(OC)cc2c2nc(CCn3c(C)nc4ccccc43)nn12 -3.99%
COc1ccc(C2(N3CCN(c4cc(C)ccc4C)CC3)C(=O)c3ccccc3C2=O)cc1 7.11%
Cc1ccc(CNC(=O)c2cc3c(=O)n4cccc(C)c4nc3s2)cc1 12.3%
Cc1ccc2oc(C(=O)NCC(c3ccc(Cl)cc3)N3CCOCC3)c(C)c2c1 (stereo not given) -6.15%
Cc1nc(-c2ccc(F)cc2)sc1CCNC(=O)c1ccccc1C(F)(F)F -19.4%
Cc1ccc(S(N)(=O)=O)cc1NC(=O)c1c(-c2c(Cl)cccc2Cl)noc1C -1.04%
Cc1ccc(CNC(=O)CN2C(=O)C3CCCCN3c3ccc(C(=O)N(C)C)cc32)cc1 (stereo not given) 6.68%
COc1ccccc1NC(=O)CN1C(=O)C(C)(C)c2ccccc21 0.761%
N#Cc1c(C(F)(F)F)cc(-c2cccs2)nc1SCC(=O)Nc1cccc(Br)c1 -0.389%
Cc1ccc(C(=O)N2CCN(c3ccccc3)CC2)cc1NC(=O)c1nsc2ccccc12 2.84%
Cc1ccc(-c2nnc(Nc3ccc(F)cc3)c3ccccc23)cc1S(=O)(=O)NC(C)C -0.44%
CCc1nnc2c(NCc3ccccc3)nc3ccccc3n12 -6.8%
Cc1ccccc1CSc1nc2c([nH]c3ccccc32)c(=O)n1-c1ccccc1 -5.69%
CCN(CC)CCNC(=O)CN1C(=O)CSc2ccc(S(=O)(=O)N3CCOCC3)cc21 7.71%
Cc1cccc(-c2nnc(SCC(=O)Nc3ccc(C)c(C)c3)o2)c1 1.77%
Cn1c(-c2cccc(Br)c2)cnc1NCc1cccc(F)c1 -1.06%
CCN(CC)S(=O)(=O)c1ccc2c(c1)c(=O)c(C(=O)N1CCN(c3ccc(OC)cc3)CC1)cn2C 6.46%
Cc1ccc(CNC(=O)CN2N=C(c3ccc(C)cc3)CCC2=O)cc1 -3.61%
CCCN(CCC)CCCNC(=O)Cn1ncn2c(cc3sc(CC)cc32)c1=O 8.98%
CC(C)c1ccc(NC(=O)C2CCCN(S(=O)(=O)c3ccc4[nH]c(=O)oc4c3)C2)cc1 (stereo not given) -0.177%
COc1cc(SC)ccc1C(=O)N1CCn2c3c(c4cc(C)ccc42)CCCC31 (stereo not given) 8.97%
COc1ccc(Nc2nnc(-c3cc4cc(Cl)ccc4oc3=O)s2)cc1 2.83%
CCC(C)NC(=O)c1ccc(Cn2c(=O)c3cccn3c3cccnc32)cc1 (stereo not given) -0.86%
CCOc1ccc(CNC(=O)Cn2nc(N3CCN(c4ccccc4)CC3)ccc2=O)cc1 -3.23%
Oc1c(C(c2cccc(Br)c2)N2CCCC2)sc2nc(-c3ccco3)nn12 (stereo not given) 0.821%
O=C(CCCCCn1c(=O)[nH]c2ccsc2c1=O)NCc1ccccc1 -5.54%
Cc1ccc(C)c(N2CCN(C(=O)CCc3c(C)nn(-c4ccc(N5CCCC5)nn4)c3C)CC2)c1 9.02%
Cc1ccc(C(=O)Nc2c(C)nc3ccccn3c2=O)cc1 5.39%

From PubChem BioAssay AID1963576 (National Center for Advancing Translational Sciences (NCATS), 2024)
